Measurements published in the supplement of paper PMC8728848.
The list shows a part of the results.

Legend:
Assay in all cases: glycan array binding signal (z-score within array); higher = stronger binding
Conditions in all cases: glycan notation: IUPAC condensed, linker removed
Glc(a1-2)Glc = target: Glc(a1-2)Glc
Summary of the method: (§1)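 The binding signal is a Z-score computed within each array. Data were drawn from 3228 arrays in the Consortium for Functional Glycomics database, restricted to those with a known protein sequence. Scores were averaged over arrays of the same protein sequence at different concentrations or buffers, and over linkers, and negative values can be taken as non-binding.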

Glc(a1-2)Glc(a1-2)Glc = target: Glc(a1-2)Glc(a1-2)Glc
Summary of the method: as §1

[1] = target: Glc(a1-2)Glc(a1-2)Glc(a1-2)Glc
Summary of the method: as §1

[2] = target: Glc(a1-2)Glc(a1-2)Glc(a1-2)Glc(a1-2)Glc
Summary of the method: as §1

[3] = target: Glc(a1-2)Glc(a1-2)Glc(a1-2)Glc(a1-2)Glc(a1-2)Glc
Summary of the method: as §1

[4] = target: Glc(a1-2)Glc(a1-2)Glc(a1-2)Glc(a1-2)Glc(a1-2)Glc(a1-2)Glc
Summary of the method: as §1

[5] = target: Glc(a1-2)Glc(a1-2)Glc(a1-2)Glc(a1-2)Glc(a1-2)Glc(a1-2)Glc(a1-2)Glc
Summary of the method: as §1

[6] = target: Glc(a1-2)Glc(a1-2)Glc(a1-2)Glc(a1-2)Glc(a1-2)Glc(a1-2)Glc(a1-2)Glc(a1-2)Glc
Summary of the method: as §1

Glc(a1-3)Glc = target: Glc(a1-3)Glc
Summary of the method: as §1

Glc(a1-3)Glc(a1-3)Glc = target: Glc(a1-3)Glc(a1-3)Glc
Summary of the method: as §1

[7] = target: Glc(a1-3)Glc(a1-3)Glc(a1-3)Glc
Summary of the method: as §1

[8] = target: Glc(a1-3)Glc(a1-3)Glc(a1-3)Glc(a1-3)Glc
Summary of the method: as §1

[9] = target: Glc(a1-3)Glc(a1-3)Glc(a1-3)Glc(a1-3)Glc(a1-3)Glc
Summary of the method: as §1

[10] = target: Glc(a1-3)Glc(a1-3)Glc(a1-3)Glc(a1-3)Glc(a1-3)Glc(a1-3)Glc
Summary of the method: as §1

[11] = target: Glc(a1-3)Glc(a1-3)Glc(a1-3)Glc(a1-3)Glc(a1-3)Glc(a1-3)Glc(a1-3)Glc
Summary of the method: as §1

[12] = target: Glc(a1-3)Glc(a1-3)Glc(a1-3)Glc(a1-3)Glc(a1-3)Glc(a1-3)Glc(a1-3)Glc(a1-3)Glc
Summary of the method: as §1

[13] = target: Glc(a1-3)Glc(a1-3)Glc(a1-3)Glc(a1-3)Glc(a1-3)Glc(a1-3)Glc(a1-3)Glc(a1-3)Glc(a1-3)Glc
Summary of the method: as §1

[14] = target: Glc(a1-3)Glc(a1-3)Glc(a1-3)Glc(a1-3)Glc(a1-3)Glc(a1-3)Glc(a1-3)Glc(a1-3)Glc(a1-3)Glc(a1-3)Glc
Summary of the method: as §1

[15] = target: Glc(a1-3)Glc(a1-3)Glc(a1-3)Glc(a1-3)Glc(a1-3)Glc(a1-3)Glc(a1-3)Glc(a1-3)Glc(a1-3)Glc(a1-3)Glc(a1-3)Glc
Summary of the method: as §1

[16] = target: Glc(a1-3)Glc(a1-3)Glc(a1-3)Glc(a1-3)Glc(a1-3)Glc(a1-3)Glc(a1-3)Glc(a1-3)Glc(a1-3)Glc(a1-3)Glc(a1-3)Glc(a1-3)Glc
Summary of the method: as §1

Glc(a1-4)Glc = target: Glc(a1-4)Glc
Summary of the method: as §1

Glc(a1-4)Glc(a1-4)Glc = target: Glc(a1-4)Glc(a1-4)Glc
Summary of the method: as §1

[17] = target: Glc(a1-4)Glc(a1-4)Glc(a1-4)Glc
Summary of the method: as §1

[18] = target: Glc(a1-4)Glc(a1-4)Glc(a1-4)Glc(a1-4)Glc
Summary of the method: as §1

[19] = target: Glc(a1-4)Glc(a1-4)Glc(a1-4)Glc(a1-4)Glc(a1-4)Glc
Summary of the method: as §1

[20] = target: Glc(a1-4)Glc(a1-4)Glc(a1-4)Glc(a1-4)Glc(a1-4)Glc(a1-4)Glc
Summary of the method: as §1

[21] = target: Glc(a1-4)Glc(a1-4)Glc(a1-4)Glc(a1-4)Glc(a1-4)Glc(a1-4)Glc(a1-4)Glc
Summary of the method: as §1

[22] = target: Glc(a1-4)Glc(a1-4)Glc(a1-4)Glc(a1-4)Glc(a1-4)Glc(a1-4)Glc(a1-4)Glc(a1-4)Glc
Summary of the method: as §1

[23] = target: Glc(a1-4)Glc(a1-4)Glc(a1-4)Glc(a1-4)Glc(a1-4)Glc(a1-4)Glc(a1-4)Glc(a1-4)Glc(a1-4)Glc
Summary of the method: as §1

[24] = target: Glc(a1-4)Glc(a1-4)Glc(a1-4)Glc(a1-4)Glc(a1-4)Glc(a1-4)Glc(a1-4)Glc(a1-4)Glc(a1-4)Glc(a1-4)Glc
Summary of the method: as §1

[25] = target: Glc(a1-4)Glc(a1-4)Glc(a1-4)Glc(a1-4)Glc(a1-4)Glc(a1-4)Glc(a1-4)Glc(a1-4)Glc(a1-4)Glc(a1-4)Glc(a1-4)Glc
Summary of the method: as §1

[26] = target: Glc(a1-4)Glc(a1-4)Glc(a1-4)Glc(a1-4)Glc(a1-4)Glc(a1-4)Glc(a1-4)Glc(a1-4)Glc(a1-4)Glc(a1-4)Glc(a1-4)Glc(a1-4)Glc
Summary of the method: as §1

Glc(a1-4)Glc(a1-6)Glc = target: Glc(a1-4)Glc(a1-6)Glc
Summary of the method: as §1

Glc(a1-6)Glc = target: Glc(a1-6)Glc
Summary of the method: as §1

Glc(a1-6)Glc(a1-4)Glc = target: Glc(a1-6)Glc(a1-4)Glc
Summary of the method: as §1

[27] = target: Glc(a1-6)Glc(a1-4)Glc(a1-4)Glc
Summary of the method: as §1

[28] = target: Glc(a1-6)Glc(a1-4)Glc(a1-4)Glc(a1-6)Glc(a1-4)Glc(a1-4)Glc
Summary of the method: as §1

Glc(a1-6)Glc(a1-6)Glc = target: Glc(a1-6)Glc(a1-6)Glc
Summary of the method: as §1

[29] = target: Glc(a1-6)Glc(a1-6)Glc(a1-6)Glc
Summary of the method: as §1

[30] = target: Glc(a1-6)Glc(a1-6)Glc(a1-6)Glc(a1-6)Glc
Summary of the method: as §1

[31] = target: Glc(a1-6)Glc(a1-6)Glc(a1-6)Glc(a1-6)Glc(a1-6)Glc
Summary of the method: as §1

[32] = target: Glc(a1-6)Glc(a1-6)Glc(a1-6)Glc(a1-6)Glc(a1-6)Glc(a1-6)Glc
Summary of the method: as §1

[33] = target: Glc(a1-6)Glc(a1-6)Glc(a1-6)Glc(a1-6)Glc(a1-6)Glc(a1-6)Glc(a1-6)Glc
Summary of the method: as §1

[34] = target: Glc(a1-6)Glc(a1-6)Glc(a1-6)Glc(a1-6)Glc(a1-6)Glc(a1-6)Glc(a1-6)Glc(a1-6)Glc
Summary of the method: as §1

[35] = target: Glc(a1-6)Glc(a1-6)Glc(a1-6)Glc(a1-6)Glc(a1-6)Glc(a1-6)Glc(a1-6)Glc(a1-6)Glc(a1-6)Glc
Summary of the method: as §1

[36] = target: Glc(a1-6)Glc(a1-6)Glc(a1-6)Glc(a1-6)Glc(a1-6)Glc(a1-6)Glc(a1-6)Glc(a1-6)Glc(a1-6)Glc(a1-6)Glc
Summary of the method: as §1

[37] = target: Glc(a1-6)Glc(a1-6)Glc(a1-6)Glc(a1-6)Glc(a1-6)Glc(a1-6)Glc(a1-6)Glc(a1-6)Glc(a1-6)Glc(a1-6)Glc(a1-6)Glc
Summary of the method: as §1

[38] = target: Glc(a1-6)Glc(a1-6)Glc(a1-6)Glc(a1-6)Glc(a1-6)Glc(a1-6)Glc(a1-6)Glc(a1-6)Glc(a1-6)Glc(a1-6)Glc(a1-6)Glc(a1-6)Glc
Summary of the method: as §1

Glc(b1-2)Glc = target: Glc(b1-2)Glc
Summary of the method: as §1

Glc(b1-2)Glc(b1-2)Glc = target: Glc(b1-2)Glc(b1-2)Glc
Summary of the method: as §1

[39] = target: Glc(b1-2)Glc(b1-2)Glc(b1-2)Glc
Summary of the method: as §1

[40] = target: Glc(b1-2)Glc(b1-2)Glc(b1-2)Glc(b1-2)Glc
Summary of the method: as §1

[41] = target: Glc(b1-2)Glc(b1-2)Glc(b1-2)Glc(b1-2)Glc(b1-2)Glc
Summary of the method: as §1

[42] = target: Glc(b1-2)Glc(b1-2)Glc(b1-2)Glc(b1-2)Glc(b1-2)Glc(b1-2)Glc
Summary of the method: as §1

[43] = target: Glc(b1-2)Glc(b1-2)Glc(b1-2)Glc(b1-2)Glc(b1-2)Glc(b1-2)Glc(b1-2)Glc
Summary of the method: as §1

[44] = target: Glc(b1-2)Glc(b1-2)Glc(b1-2)Glc(b1-2)Glc(b1-2)Glc(b1-2)Glc(b1-2)Glc(b1-2)Glc
Summary of the method: as §1

[45] = target: Glc(b1-2)Glc(b1-2)Glc(b1-2)Glc(b1-2)Glc(b1-2)Glc(b1-2)Glc(b1-2)Glc(b1-2)Glc(b1-2)Glc
Summary of the method: as §1

[46] = target: Glc(b1-2)Glc(b1-2)Glc(b1-2)Glc(b1-2)Glc(b1-2)Glc(b1-2)Glc(b1-2)Glc(b1-2)Glc(b1-2)Glc(b1-2)Glc
Summary of the method: as §1

[47] = target: Glc(b1-2)Glc(b1-2)Glc(b1-2)Glc(b1-2)Glc(b1-2)Glc(b1-2)Glc(b1-2)Glc(b1-2)Glc(b1-2)Glc(b1-2)Glc(b1-2)Glc
Summary of the method: as §1

[48] = target: Glc(b1-2)Glc(b1-2)Glc(b1-2)Glc(b1-2)Glc(b1-2)Glc(b1-2)Glc(b1-2)Glc(b1-2)Glc(b1-2)Glc(b1-2)Glc(b1-2)Glc(b1-2)Glc
Summary of the method: as §1

Measured: glycan array binding signal (z-score)

B1: Lam16A (Thermotoga maritima), Q9WXN1 (protein)
chain: EQINNGTFDEPIVNDQANNPDEWFIWQAGDYGISGARVSDYGVRDGYAYITIADPGTDTWHIQFNQWIGLYRGKTYTISFKAKADTPRPINVKILQNHDPWTNYFAQTVNLTADWQTFTFTYTHPDDADEVVQISFELGEGTATTIYFDDVTVSPQ
-0.364: [25]
-0.363: [23]
-0.37: [15] | [26]
-0.371: [8]
-0.368: [20] | [21] | [35]
-0.255: [36]
-0.366: [24]
-0.373: all other assays above
